± gives the standard deviation of the averaged measurements. Over roughly 33,000 sequences, “E-score (dimensionless, -0.5 to 0.5)” has its median near -0.049; the highest 2% begin near 0.37. The list shows a part of the results.
tested on: T1, PmTbr T-box DNA-binding domain (GST fusion); assay: PBM E-score of 8-mer (E-score (dimensionless, -0.5 to 0.5)); Tbr is Tbrain of the sea star Patiria miniata (Pm) or the sea urchin Strongylocentrotus purpuratus (Sp); higher = stronger binding preference; most listed sequences are background and not binding sites; settings: the construct has about 5 more residues each side
T1 sequence: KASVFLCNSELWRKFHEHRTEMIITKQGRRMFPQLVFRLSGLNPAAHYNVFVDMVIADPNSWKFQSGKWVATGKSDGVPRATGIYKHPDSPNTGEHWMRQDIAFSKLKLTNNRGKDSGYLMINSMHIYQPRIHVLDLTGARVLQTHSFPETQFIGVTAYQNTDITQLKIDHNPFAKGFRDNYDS
Outline: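 Each ungapped 8-mer received an enrichment E-score from the Universal PBM Analysis Suite, averaged over duplicate arrays. The proteins were Tbr T-box DNA-binding domains, covering the whole T-box plus about five flanking residues, fused to GST and expressed in BL21 E. coli at 20 °C before glutathione affinity purification. Universal Agilent oligonucleotide arrays were made double-stranded by primer extension and incubated with 200 nM protein in PBS (pH 7.5). The arrays were then scanned and quantified, and every 8-mer was scored from probe intensities.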

Sequence	PBM E-score of 8-mer
CGTTAAGC	0.0834 ± 0.024
CCAAGTAC	0.0207 ± 0.054
AGGCCCTC	-0.448 ± 0.0054
AACGAGAT	-0.176 ± 0.028
AGAACGTC	-0.0499 ± 0.094
GATTCTCA	0.149 ± 0.025
AGGGACGC	-0.185 ± 0.017
ACCTGCGC	0.0232 ± 0.034
AGGCATCG	-0.197 ± 0.012
AAGCTGTC	0.276 ± 0.032
GAGTCTGC	-0.138 ± 0.025
GAACGTAA	-0.106 ± 0.074
CCCTAACA	0.154 ± 0.024
CAGCCTTC	0.0672 ± 0.013
GTACTGGA	-0.259 ± 0.044
AGTCCCGC	-0.0686 ± 0.011
ACGTTGGA	-0.0523 ± 0.0094
CACCTATA	0.377 ± 0.018
AGACGTCG	-0.0747 ± 0.046
GACGGTAA	-0.118 ± 0.051
ACAAAGGA	-0.0621 ± 0.014
CTCCAATA	-0.0377 ± 0.038
CAATTAGG	0.213 ± 0.054
ATCGGCCG	-0.17 ± 0.072
GAAGCGAA	-0.0411 ± 0.045

Sequence	PBM E-score of 8-mer
ACATTCGT	0.061 ± 0.0019
AGTATCGG	-0.12 ± 0.027
ATGATTAA	-0.0667 ± 0.099
TCACACGA	0.351 ± 0.02
ACAGACTG	-0.153 ± 0.055
GCCCTGAC	-0.0459 ± 0.073
TACACTGA	-0.0183 ± 0.006
GTAAAGAC	-0.209 ± 0.0068
CCCTCAAA	-0.0698 ± 0.058
CACTGAGC	-0.026 ± 0.018
GTGAGAAC	0.44 ± 0.0046
ATTAATTC	-0.198 ± 0.076
AGGGATCA	-0.131 ± 0.037
AGCAACCC	0.0851 ± 0.039
AACGGGGT	-0.136 ± 0.084
AGAAAACA	0.0444 ± 0.03
CGGAAACC	0.174 ± 0.0024
ACAAATGC	0.0343 ± 0.039
AAAGGACA	-0.00333 ± 0.022
GTCATGGA	-0.173 ± 0.027
TAGCCGCA	-0.085 ± 0.025
CAGGACAG	0.011 ± 0.041
ATCAAATC	-0.244 ± 0.069
GAGGCCAA	-0.197 ± 0.058
AATTGAGA	-0.118 ± 0.086

Sequence	PBM E-score of 8-mer
CCGATTAC	0.0603 ± 0.097
TACCACTA	-0.0269 ± 0.01
AAGAAACA	0.0209 ± 0.13
GGGCACCC	-0.156 ± 0.016
ACCAGTAT	-0.087 ± 0.037
AATATCGT	-0.104 ± 0.12
GTAGACCA	-0.2 ± 0.022
CGTTTCAA	-0.022 ± 0.0086
ATTGGATA	-0.22 ± 0.0046
TGCTAACA	0.369 ± 0.041
ATCTTATG	-0.215 ± 0.0049
ACCTGGCA	0.288 ± 0.011
AAATTTCA	0.109 ± 0.086
ACTGGGTA	-0.123 ± 0.03
AGGGCAGG	-0.233 ± 0.013
CGGGAGGA	-0.138 ± 0.059
GATGGCGA	0.1142 ± 0.00067
AGAATACA	-0.00101 ± 0.021
GAGACCAA	0.197 ± 0.013
CAATGACA	0.139 ± 0.02
CTACAGCA	-0.187 ± 0.053
GATCTTCA	-0.0183 ± 0.042
ACTAAAAA	-0.0935 ± 0.077
GCCTTTTA	-0.114 ± 0.025
AATTAAGA	-0.296 ± 0.035

Sequence	PBM E-score of 8-mer
CGTTCTAG	-0.057 ± 0.034
CTAGACAG	-0.0994 ± 0.099
ACTCCCAA	-0.185 ± 0.036
CTCGAAAG	-0.0414 ± 0.0042
ACTAGTAC	-0.0361 ± 0.05
CGATCACA	0.3532 ± 0.0012
GAGACATA	-0.0845 ± 0.0094
GCATTCAA	-0.148 ± 0.016
CCCTAATA	-0.219 ± 0.027
GCTGTTGA	0.0473 ± 0.023
GTGTGCAA	0.329 ± 0.0035
ACGATGAG	-0.0431 ± 0.029
CGGACGCA	-0.0901 ± 0.091
ATATTACG	-0.166 ± 0.025
CCACCCCA	0.129 ± 0.089
CATAAGTA	-0.00558 ± 0.019
AATGGTAA	-0.0591 ± 0.045
CAAACTGA	0.012 ± 0.033
CGCCTGAG	0.0681 ± 0.047
GAAATAAA	0.0685 ± 0.061
ACACACCT	0.445 ± 0.0069
CGACCGCG	0.128 ± 0.061
GCACGGCC	0.0764 ± 0.06
ATGGGACA	-0.11 ± 0.042
CATTAGAA	-0.14215 ± 0.00011

Sequence	PBM E-score of 8-mer
ACTTACTC	0.165 ± 0.0043
ACTATGAT	-0.15 ± 0.0073
ACATTAGC	0.117 ± 0.022
CGCCTCGC	0.273 ± 0.0056
CGCCCGTA	-0.166 ± 0.022
AATGATCG	-0.0804 ± 0.013
ATTTATAG	-0.213 ± 0.084
ACCACGAG	-0.0449 ± 0.049
AGCTTGTC	0.0667 ± 0.021
ACTGTATA	-0.117 ± 0.021
CTAGCGTC	0.0113 ± 0.051
AGTGATCG	0.0267 ± 0.044
ATGAACGG	-0.0998 ± 0.028
GTATAGAA	-0.151 ± 0.0043
CAAAGAAC	-0.0272 ± 0.038
ACCTCAAC	-0.0545 ± 0.07
CCATCAGA	-0.268 ± 0.016
CCCTCAAG	0.0558 ± 0.0097
AGGATCAC	0.0241 ± 0.023
CTGACGTA	0.0494 ± 0.022
CTCGGTGA	0.0383 ± 0.022
CCCTGACC	-0.2 ± 0.064
CACCACAG	0.131 ± 0.004
ACCAAACA	0.174 ± 0.037
GAGAGATA	-0.0805 ± 0.045

Sequence	PBM E-score of 8-mer
CCTACAAG	-0.206 ± 0.02
ATGATAGA	-0.19 ± 0.0059
CGACTCTA	0.0869 ± 0.0033
ACAGCCCC	-0.143 ± 0.055
GCGCAGAC	0.0469 ± 0.02
CTCCCGAC	-0.00494 ± 0.06
AAGGCTTC	-0.203 ± 0.044
ACGCGATG	0.00386 ± 0.015
CCAGAAGA	-0.263 ± 0.019
CCTTTCAA	-0.195 ± 0.072
CGGTTCAG	-0.0948 ± 0.085
CAGAAATG	-0.107 ± 0.046
GGGTGAGA	0.406 ± 0.009
AAGTCGCG	0.264 ± 0.023
AACGAGCG	-0.0477 ± 0.036
AATCTGGC	-0.0204 ± 0.028
GATGCTCA	-0.0218 ± 0.063
ATTCTGCG	0.0271 ± 0.014
CACCTGAA	0.312 ± 0.0079
CTGCTTTA	0.0965 ± 0.035
GGACAGTA	-0.175 ± 0.033
CTACCGGA	-0.1 ± 0.11
TCGGTTCA	-0.15 ± 0.091
CACCTATC	0.399 ± 0.0088
GCTCGACC	-0.0431 ± 0.0074

Sequence	PBM E-score of 8-mer
TAAAATAA	-0.0133 ± 0.044
CGGACTTC	-0.059 ± 0.0073
ACAGTAAT	0.162 ± 0.038
CTGGTGCC	0.128 ± 0.018
CGTTGAGC	-0.178 ± 0.06
ACGCCCGT	0.0279 ± 0.084
TGGACGAA	-0.00136 ± 0.1
ATACCATA	-0.0746 ± 0.076
AAATAACT	-0.0561 ± 0.07
CATTAAGG	-0.136 ± 0.13
CGACACCG	0.273 ± 0.033
AGCTATGG	-0.258 ± 0.016
TACGTCCA	-0.173 ± 0.0083
ACGGCGAA	0.0349 ± 0.045
ATCTGTAC	-0.039 ± 0.0076
CATGAAAC	-0.17 ± 0.039
CCCTGGTA	0.00846 ± 0.025
GTCGACGA	0.155 ± 0.015
CAACCTAA	0.0476 ± 0.071
GAAAGGCA	-0.108 ± 0.0073
GGAGTGGA	-0.0457 ± 0.03
TAGGGCAA	-0.335 ± 0.015

From the supplement of paper PMC4166925
